Laboratory results: PMC6919601, “Identification of Plasmodium dipeptidyl aminopeptidase allosteric inhibitors by high throughput screening” (PLoS ONE, 2019)
Out of some 110,000 compounds screened, about 230 (0.21%) showed an effect of 50% or more. The list shows a part of the results.

Target: DPAP1 (Plasmodium falciparum, UniProt Q8IIJ9)
Test: primary screen, percent inhibition; read by cleavage of a fluorogenic dipeptide substrate; higher = more effect of the substance
Parameters: species or system P. falciparum D10 trophozoite lysates; single well
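Further: 30 min substrate incubation versus DMSO and 10 µM JCP410 controls.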

Chain of DPAP1 (Q8IIJ9 whole entry, looked up): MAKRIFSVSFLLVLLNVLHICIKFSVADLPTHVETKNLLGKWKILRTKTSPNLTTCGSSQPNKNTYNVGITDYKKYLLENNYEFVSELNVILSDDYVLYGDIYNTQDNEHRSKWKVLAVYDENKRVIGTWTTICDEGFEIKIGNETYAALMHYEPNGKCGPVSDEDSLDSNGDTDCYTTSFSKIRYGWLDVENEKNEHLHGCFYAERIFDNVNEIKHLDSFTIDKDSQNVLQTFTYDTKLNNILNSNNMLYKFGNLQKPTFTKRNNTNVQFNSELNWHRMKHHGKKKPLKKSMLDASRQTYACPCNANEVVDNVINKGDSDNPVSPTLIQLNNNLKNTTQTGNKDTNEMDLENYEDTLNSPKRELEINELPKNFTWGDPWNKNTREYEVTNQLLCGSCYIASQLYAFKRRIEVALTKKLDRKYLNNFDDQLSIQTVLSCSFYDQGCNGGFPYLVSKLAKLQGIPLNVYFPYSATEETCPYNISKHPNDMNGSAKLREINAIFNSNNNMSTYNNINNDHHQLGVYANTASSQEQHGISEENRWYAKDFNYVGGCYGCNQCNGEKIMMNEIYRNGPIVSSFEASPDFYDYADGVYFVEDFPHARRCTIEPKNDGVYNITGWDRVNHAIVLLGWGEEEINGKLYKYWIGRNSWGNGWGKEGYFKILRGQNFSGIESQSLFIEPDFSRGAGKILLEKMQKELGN

Row | Compound | % Inhibition @ 10 uM [%]
1 | CCOc1ccc(C(C)(C)C)cc1S(=O)(=O)n1cnc2ccccc21 | 3.93
2 | CCOC(=O)N1CCN(C(=O)c2cc3cc4ccc(C)cc4nc3s2)CC1 | -0.148
3 | COc1cc2c(C(=O)NCCCN3CC(C)CC(C)C3)cn(CC(C)C)c(=O)c2cc1OC (stereo not shown) | -4.86
4 | Cc1nc(O)c2c(n1)OC(N)=C(C#N)C2c1ccc(Cl)cc1 (stereo not shown) | 0.815
5 | Cc1ccc(CNC(=O)CCCn2ccc3cc(S(=O)(=O)N4CCCC4)ccc32)cc1 | -5.94
6 | CC(=O)NC(CC(=O)c1ccc(Cl)cc1Cl)C(Cl)(Cl)Cl (stereo not shown) | -5.51
7 | CCOc1nc(-c2ccccc2)ncc1Oc1ccccc1 | -0.511
8 | COc1ccccc1/C=C/CN(C)C1CCN(C)CC1 | 7.79
9 | COc1ccc(NC(=O)CC2(c3ccc(C)cc3)CCOC(C)(C)C2)cc1 (stereo not shown) | -7.06
10 | Nc1c(C(=O)Nc2cc(F)ccc2F)sc2nc(-c3ccncc3)ccc12 | 8.66
11 | O=c1c2ccccc2ncn1CCCn1c(Cc2ccccc2)nc2ccccc21 | -4.39
12 | COc1cccc(N2C(=O)CC(N3CCN(Cc4ccccc4)CC3)C2=O)c1 (stereo not shown) | -5.9
13 | COc1ccc(C(=O)CCN(C)C)cc1F | 3.01
14 | O=S(=O)(c1ccc(-c2cs/c(=N\c3ccccc3)n2CC2CCCO2)cc1)N1CCCCC1 (stereo not shown) | 2.76
15 | CCOc1cc(C2NC(S)=NC(C)=C2C(=O)NC)ccc1O (stereo not shown) | -1.33
16 | Cc1cc(-c2nc(-c3cccnc3)[nH]c2-c2cc(C)sc2C)c(C)s1 | -2.91
17 | COc1ccc(C(=O)N2CCn3c2nc2ccccc23)cc1OC | -5.1
18 | O=C1NC2=C(C(=O)c3ccccc32)C(c2ccc(Cl)cc2)S1 (stereo not shown) | 9.86
19 | OCCN(CC#CC(O)(c1ccccc1)c1cccc(F)c1)CCO (stereo not shown) | -1.33
20 | O=C(O)CC(CC(=O)c1ccccc1)c1ccccc1 (stereo not shown) | 2.65
21 | O=C(NC(c1ccccc1)c1ccccc1)c1cccnc1 | 0.135
22 | CC(=O)N(C)c1ccccc1C(=O)O | -8.51
23 | CC1CCN(C(=O)CN(C)S(=O)(=O)c2cccc3nsnc23)CC1 | -1.43
24 | O=C(c1cnc2c(c1)COc1ccccc1-2)c1cc(Br)ccc1O | -5.35
25 | Cc1cccc(NC2=NC(=O)/C(=C\c3cccc(O)c3)S2)c1 | 8.75
26 | COc1ccc(CCNS(=O)(=O)c2ccc(CCN3C(=O)c4cccnc4C3=O)cc2)cc1OC | -0.231

Row | Compound | % Inhibition @ 10 uM [%]
27 | N#CC1=C(N)NC(SCC(=O)Nc2ccc(Br)cc2)=C(C#N)C12CCCCC2 | 6.15
28 | COCCCNC(=O)c1nnc(-c2ccc3c(c2)OCO3)o1 | -3.8
29 | O=C(CSc1nc2c(c(=O)n1Cc1ccccc1)SCC2)NCc1ccco1 | 4.29
30 | Cc1ccccc1-c1nc(-c2ccc(Br)cc2)no1 | 5.32
31 | O=C(O)c1nc(O)nc2ccccc12 | 3.54
32 | CCOC(=O)/C(C#N)=C/c1c(OCC)n(CC)c2ccccc12 | 2.22
33 | N#Cc1c(C(F)(F)F)cc(-c2ccccc2)nc1S | 73.6
34 | CC(C)(C)N(Cc1ccc([N+](=O)[O-])cc1)CC(O)COc1ccccc1 (stereo not shown) | 3.34
35 | CC1CCN(C(=O)C2CCN(S(=O)(=O)c3cc(Cl)ccc3Cl)CC2)CC1 | -0.641
36 | Cc1cccc(Cc2c(C)nc3c(C(=O)O)cnn3c2C)c1 | 5.99
37 | CCCCCCN1C(=O)C(O)=C(C(C)=O)C1c1ccc(Cl)cc1 (stereo not shown) | 1.37
38 | CCc1ccccc1NC(=O)CSCC(=O)Nc1ccc(C)cc1 | 1.08
39 | Cc1cc2c(cc1Br)NC(=O)C21C(C#N)=C(N)OC2=C1C(=O)CC(c1ccccc1)C2 (stereo not shown) | 2.76
40 | COc1ccccc1N1CCN(C(=O)COc2ccc(Cl)cc2Cl)CC1 | 6.8
41 | CSc1ccc(CCNC(=O)CCCN2C(=O)c3ccccc3Sc3ncccc32)cc1 | -4.46
42 | COc1ccc(OC)c(NCc2ccc(C(F)(F)F)cc2)c1 | -0.603
43 | CC1CC(C)CN(C(=O)CCn2nc(-c3ccc(Cl)cc3)ccc2=O)C1 (stereo not shown) | 1.62
44 | CCCCSC1=C(C#N)C(=O)NC(C)(C)S1 | 1.72
45 | COc1ccc(-c2ncnn2-c2ccc(Br)cc2F)cc1 | 1.29
46 | COc1ccc(N(CC(=O)NCc2ccccc2)S(C)(=O)=O)cc1Cl | -3.78
47 | O=C(c1ccc(F)cc1)N(Cc1ccccc1)c1ccccn1 | -5.16
48 | COc1ccccc1-n1c(C)cc(/C=C2/C(=N)N3C=C(C)SC3=NC2=O)c1C | -4.84
49 | C1=C(CCNc2nn3nnnc3c3ccccc23)CCCC1 | -0.436
50 | C=CCSc1nc(=O)c2c(n1C)NC(=O)CC2c1ccc(OCC)c(OC)c1 (stereo not shown) | -2.88
51 | COc1cccc(NC(=O)c2c(Cl)nc(C)c(Cl)c2C)c1 | -3.65
52 | CC1=C(CCN2CCN(c3ccc(F)cc3)CC2)C(C)(C)CCC1 | 3.15

Row | Compound | % Inhibition @ 10 uM [%]
53 | Cc1nn2c(=O)/c(=C/c3cccs3)sc2nc1=O | 1.91
54 | CC1(C)Cn2c(nc(=O)c3c2NC(=O)C3(O)C(F)(F)F)S1 (stereo not shown) | -1.11
55 | O=C(NC1CCCc2ccccc21)C1CCN(S(=O)(=O)c2cccc3nonc23)CC1 (stereo not shown) | 5.74
56 | Cc1cc(C)c(/C(O)=C/C2=NCCNC2=O)c(C)c1 | -3.09
57 | Cc1nn(CCCC(=O)NCCCN(Cc2ccccc2)C(C)C)c(=O)c2c1sc1ccccc12 | -3.76
58 | O=C1C2C3CCC(O3)C2C(=O)N1Cc1ccncc1 (stereo not shown) | 8.94
59 | Cc1cc(C)c(S(=O)(=O)c2ccccc2)cc1C | -3.58
60 | CCOc1ccccc1-n1c(C)cc(C)nc1=O | -1.17
61 | COc1cc(N(C)C)c([N+](=O)[O-])cc1C(=O)N1CC(C)NC(C)C1 (stereo not shown) | -5.38
62 | CC1=CC(C)(C)N(Cc2ccc([N+](=O)[O-])cc2)c2cc(C)c(C)cc21 | -1.54
63 | O=C1CC2C(=O)NCCN2C(NC(=O)c2ccccc2)=N1 (stereo not shown) | 4.96
64 | CC(O)CN(Cc1ccccc1)CC(C)O (stereo not shown) | 4.28
65 | CCn1ccnc(N2CCOCC2)/c1=N/c1ccc(OC)cc1 | 3.05
66 | O=C1C=C2c3ccccc3CC3(CCCC3)N2C1=O | -0.28
67 | N#CC1=C(N)Oc2[nH]nc(-c3cccs3)c2C1c1cc2c(cc1Cl)OCO2 (stereo not shown) | 3.62
68 | CC(C)(C)c1ccc(C(=O)Nc2cc(-c3ccccc3)no2)cc1 | -5.08
69 | CC1(c2ccc3c(c2)OCO3)NC(=O)NC1=O (stereo not shown) | -6.68
70 | O=C(CSc1ccccc1C(=O)O)Nc1ccccc1F | -1.55
71 | COc1ccc(Nc2nc(NCC3CCCO3)c3ccccc3n2)cc1 (stereo not shown) | -4.12
72 | O=C(c1ccco1)N1CCN(c2nc3ccccc3n3nnnc23)CC1 | 2.76
73 | Cn1cnc2c(=O)oc3ccc(S(=O)(=O)N4CCOCC4)cc3c21 | -7.88
74 | COc1ccc(Cl)cc1-c1nc(N)nc(NC2CCCCC2)n1 | 0.583
75 | COc1ccc(C2Nc3ccccc3NC3=C2C(=O)NC3)cc1OC (stereo not shown) | 2.86
76 | O=C(Nc1ccccc1O)c1ccccc1F | -1.17
77 | Cc1ccc(S(=O)(=O)N2CCN(C(=O)CC(C)C)CC2)cc1 | -3.4
78 | COCc1cc(C)nc2sc(C#N)c(N)c12 | -0.436

Row | Compound | % Inhibition @ 10 uM [%]
79 | Cc1ccc(C(O)c2nc3ccccc3n2C)cc1 (stereo not shown) | 2.85
80 | O=C1NC2(CCNCC2)N=C1c1ccccc1 | 2.33
81 | CCCn1c(CCC(=O)NCc2ccc(C)cc2)nc2cccnc21 | 0.66
82 | c1ccc2[nH]c(CN3CCCCC3)nc2c1 | -0.178
83 | Cc1c(C(=O)C(F)(F)F)c2ccccc2n1CC(=O)NCc1ccc2c(c1)OCO2 | -5.1
84 | C=CCc1c(C)nc(SC)nc1Nc1ccc(C(C)=O)cc1 | -1.88
85 | Nc1nc(-c2ccc(-c3ccc(-c4csc(N)n4)cc3)cc2)cs1 | -1.51
86 | Cc1cc(C)c2c(=O)n(CC(=O)N3CCN(Cc4ccccc4)CC3)sc2n1 | 17.8
87 | CCOc1ccc(N/C(=N\C(C)=O)Nc2nc(C)cc(C)n2)cc1 | -1.08
88 | O=C(NC12CC3CC(CC(C3)C1)C2)OCCNc1ccccc1 | 0.815
89 | COc1nc2c(c(=O)n(C)c(=O)n2C)n1Cc1ccc(C#N)cc1 | -8.63
90 | CN(C)c1ccc(C(C2=C(O)CC(C)(C)CC2=O)C2C(=O)CC(C)(C)CC2=O)cc1 (stereo not shown) | 0.716
91 | O=C(N/C(=C/c1cccs1)C(=O)N1CCCC1)c1cccs1 | 1.01
92 | CCNC(=O)CN(c1cc(Cl)cc(Cl)c1)S(=O)(=O)c1ccccc1 | 0.956
93 | O=C(CCn1nc(-c2ccccc2)ccc1=O)NCc1ccccc1Cl | 3.24
94 | CCCOc1ccc(Br)cc1C1/C(=C(\O)OCC)C(C)=Nc2nnnn21 (stereo not shown) | 0.0289
95 | O=C(NCCc1ccc(O)cc1)c1ccc2ccccc2c1 | 3.47
96 | C[n+]1cn(CC(O)COc2cccc(Cl)c2)c2ccccc21 (stereo not shown) | 2.95
97 | O=C(NC1CC1)C1CCN(C(=O)c2ccc(-n3ccc4ccccc43)s2)CC1 | 3.45
98 | C/C(=C\c1ccccc1)CN1C[C@@H]2C[C@H](C1)c1cccc(=O)n1C2 | 3.22
99 | Cc1cc(=O)n2nc(N(C)CC(=O)NCC(C)c3ccccc3)sc2n1 (stereo not shown) | -2
100 | COc1nc(C)ccc1-c1noc(-c2ccccc2Cl)n1 | 5.3
101 | COc1ccccc1N1CCN(Cc2ccsc2)CC1 | -1.86
102 | O=C(c1cc(-c2ccncc2)nc2ccccc12)N1CCN(c2ccccn2)CC1 | 1.16
103 | CS(=O)(=O)N(CC(=O)N(Cc1ccccc1)Cc1ccccc1)c1cccc(F)c1 | 28.4
